Data reported in ChEMBL document CHEMBL5308541, “MAIP: An Open-Source Tool to Enrich High-Throughput Screening Output and Identify Novel, Druglike Molecules with Antimalarial Activity” (ACS Med Chem Lett, 2023).
Among all 150,000 compounds or so, about 540 (0.36%) showed an effect of 50% or more. This is one part of the list.

What follows are molecules tested on Plasmodium falciparum (assay: Primary screen in NF54 nanoGlo assay, in single point, at 2uM, 72h; a lower Z score goes with more inhibition). Settings: timepoint 72 hour.
Format: functional, Erythrocyte

Row | SMILES | % Inhibition [%] | Z score
1 | CC(C)Oc1ccc(C(=O)N[C@H](Cc2c[nH]cn2)C(=O)O)cn1 | -9 | 1.49
2 | CCN(C)c1cc(N2CCC3(CC2)OCCc2c3[nH]c3ccccc23)ncn1 | 4 | -0.65
3 | Nc1nc(NC[C@@H](c2ccccc2)N2CCCCCC2)c2[nH]cnc2n1 | -9 | 2
4 | O=C(Cc1c[nH]c2ccccc12)Nc1ccc(Nc2ccc(-n3cccn3)nn2)cc1 | 8 | -1.32
5 | O=C(N1CCn2ncnc2C1)C1(c2cccc(Br)c2)CCCCC1 | -4 | 0.63
6 | CN1CCN(c2ccnc(-c3noc([C@]4(C)CC=CCC4)n3)c2)CC1 | 0 | 0.06
7 | Cc1ccnc(OC[C@H]2CC(=O)N(CC3CCN(CCCc4ccccc4)CC3)C2)c1 | 5 | -0.87
8 | COc1cc(CNC2(c3cccc(F)c3)CCOCC2)ccc1C | -12 | 2.65
9 | CN(C(=O)[C@H]1CC[C@H](Nc2cnccn2)CC1)C1CCNCC1 | -1 | 0.25
10 | Cc1nncn1CCN1CCC[C@H](CNC(=O)c2ccnc3ccccc23)C1 | 5 | -0.83
11 | Cc1ccoc1C(=O)NCCCNc1nc2ccccc2[nH]1 | 0 | -0.01
12 | Fc1cnc(Nc2cnn(CCN3CCCCC3)c2)nc1 | -5 | 0.8
13 | Cc1nn(C)c(C)c1CN(C(=O)c1cnc(N2CCOCC2)nc1)C1CC1 | -5 | 0.91
14 | Cc1ccsc1CN(C)C(=O)c1coc(COc2ccc3ncccc3c2)n1 | -5 | 1.05
15 | CC1(C)C2CC(NCc3ccc(Oc4ccc(F)cc4)nc3)[C@](C)(O)C1C2 (stereo partly drawn) | -11 | 1.65
16 | Nc1ccc2[nH]c(-c3ccc(Cl)cn3)nc2c1 | 6 | -1.11
17 | c1ccc2oc(N3CCN(c4ncnc5cc[nH]c45)CC3)nc2c1 | 1 | -0.16
18 | Cc1cccc(OC2CN(Cc3ccc4[nH]ccc4c3)C2)c1 | -6 | 1.24
19 | Fc1ccc(Oc2cc(N3CCN(CCN4CCOCC4)CC3)ncn2)c(Cl)c1 | -4 | 0.72
20 | OCc1cccc(CNCc2cnc3c(-c4ccccc4)cnn3c2)c1 | 0 | -0.01
21 | CC1CCN(C[C@H](C)NC(=O)c2ccc3cnccc3c2)CC1 | 2 | -0.29

Row | SMILES | % Inhibition [%] | Z score
22 | N#Cc1c(F)cccc1NCCc1nc2cc(F)ccc2s1 | 7 | -1.17
23 | FC(F)(F)c1nccc(NCCN2CCC(c3ccccc3)CC2)n1 | -6 | 1.13
24 | O=C(C1CCC1)N1CCC(NCCN2CCC(c3ccccc3)CC2)CC1 | -17 | 2.91
25 | COc1cccc(CNCCN2CCC[C@H](O)C2)c1OCCn1ccnc1 | -2 | 0.42
26 | COc1cccc(-c2nc3cc(C#N)ccc3[nH]2)n1 | 0 | 0.04
27 | O[C@@H](CNc1nc2cnccc2s1)c1ccc(C(F)(F)F)cc1 | -5 | 0.69
28 | CN(CC[C@H]1CCCCN1C)C(=O)c1cncc(-c2cnn(C)c2)c1 | -4 | 0.74
29 | Cc1ncc(Cl)c(NCc2cc(C(C)(C)C)n[nH]2)n1 | -9 | 1.51
30 | COc1cc(-c2nc3c(cnn3C3CCCCC3)[nH]2)ccc1O | -2 | 0.42
31 | Nc1nc(NCCO)cc(N2CCC(n3c(=O)[nH]c4ccccc43)CC2)n1 | 2 | -0.38
32 | c1cncc(-c2ccc(CNC3CCN(Cc4cccs4)CC3)cc2)c1 | 37 | -8.03
33 | CC(C)(C(=O)NCC1(CCO)CC1)c1c[nH]cn1 | 0 | 0.05
34 | CC(C)OCCN1CCN(c2ncc(F)c(NCC(F)F)n2)CC1 | 2 | -0.4
35 | O[C@H]1CCCN(CCCNc2cc(N3CCCCC3)ncn2)C1 | -2 | 0.45
36 | O=C(CC1CCCC1)Nc1cccc(N2CCC(NC[C@@H](c3ccccn3)N3CCOCC3)CC2)c1 | -6 | 1.17
37 | CCOc1ccc2nc(N3CCCN(Cc4c(C)nn(CC)c4C)CC3)nc(C)c2c1 | 22 | -4.29
38 | O=C(Nc1cncnc1N1CCCC1)[C@H]1CCCN(CC(F)(F)F)C1 | -15 | 2.28
39 | CN1CC[C@@H](CNc2cnc3cc(F)c(F)cc3n2)[C@@H]1c1cccnc1 | -5 | 0.99
40 | CC1CCN(CC(O)CNC2CCCN(c3cccnn3)C2)CC1 (stereo not drawn) | -12 | 2.15
41 | CN1CCCC(C(=O)N2CCC(Oc3cncc(N(C)C)n3)C2)C1 (stereo not drawn) | 3 | -0.58
42 | O=C1COc2cc(S(=O)(=O)Oc3ccc(Cl)c4cccnc34)c(Cl)cc2N1 | -3 | 0.6

Row | SMILES | % Inhibition [%] | Z score
43 | CCc1[nH]ncc1C(=O)NCCc1ncn(C)c1Br | 0 | -0.03
44 | Cc1ccn(CCN2CCC(N3CCC[C@H](C(=O)N4CCOCC4)C3)CC2)n1 | -8 | 1.36
45 | Cn1nc(C#CCN2CCOCC2)c(C#CCN2CCOCC2)c1C#CCN1CCOCC1 | -5 | 0.95
46 | CC(C)(C)OC(=O)N1CCC(CC(=O)Nc2ccccc2-c2nc3ccccc3[nH]2)CC1 | -9 | 1.48
47 | Cc1nccn1-c1cncc(NCCCN2CCCO[C@@H](C)C2)n1 | -13 | 1.9
48 | COC(=O)c1ccc(C)c(Nc2ncnc(NC3CCCC3)c2C#N)c1 | -9 | 1.34
49 | CCCC1COCC2CN(C(=O)c3ccnc4ccccc34)CCN12 (stereo not drawn) | -1 | 0.16
50 | Cc1cnccc1NCCNc1ncc(F)c(N2CCCC2)n1 | 25 | -3.87
51 | CCN1C[C@@H](CN(C)c2cc(C)nc3ccc(C(F)(F)F)cc23)CC1=O | 0 | 0.08
52 | C[C@H]1c2nc(N)nc(-c3ccncc3)c2CN1Cc1ccnc2ccccc12 | -7 | 1.32
53 | CC(C)C1OCCCC1Nc1cc(N2CCC(n3ccnc3)CC2)ncn1 (stereo not drawn) | -14 | 3.08
54 | CN1CCC(N2CCN(C(=O)c3cc(F)ccc3OCCCN)CC2)CC1 | 8 | -1.59
55 | C#Cc1ccc(C(=O)N2C[C@H](N(C)C)C3(CCOCC3)C2)cc1 | 0 | -0.1
56 | c1cc2cc(-c3cnn(CC4CCNCC4)c3)cnc2[nH]1 | -2 | 0.24
57 | COc1ccc2[nH]c(CNC(=O)[C@]3(C)CCc4c(C)c(O)c(C)c(C)c4O3)cc2c1 | -8 | 1.62
58 | Cc1nc2c([nH]1)CC[C@H](C(=O)Nc1cc(C(C)(C)C)no1)C2 | 2 | -0.31
59 | O=S(=O)(Nc1cncc(N2CCCC2)n1)c1c[nH]c2ccccc12 | -2 | 0.31
60 | CC(=O)N1CC2CCC(C1)N(C(=O)COc1ccc3ccccc3c1)C2 (stereo not drawn) | 0 | -0.03
61 | OCC[C@H]1CN(c2cc(N3CCCCC3)ncn2)CCN1C1CCCCC1 | -24 | 4.72
62 | Cc1sc(NC(=O)c2c(C3CCC3)cnn2C)nc1-c1c[nH]c2ncccc12 | -5 | 0.78
63 | Cc1ccc(-c2ccnc(N3CCC(NCc4nc[nH]c4C)CC3)n2)c(C)n1 | 5 | -0.7

Row | SMILES | % Inhibition [%] | Z score
64 | Cc1cc(Nc2cnn(CC(C)C)c2C2CC2)nc(C2CC2)n1 | -9 | 1.74
65 | Cc1cc2nc(N3CCC(N4CCC(Oc5cccnc5)CC4)CC3)nc(C)c2cc1C | -15 | 2.6
66 | O=C(N[C@H]1CC[C@H](Oc2cnccn2)CC1)c1ccc2[nH]ccc2c1 | -3 | 0.48
67 | COC(=O)[C@@H](C)Cc1ccc(NC(=O)N(C)C(C)C)cc1 | -13 | 2.25
68 | N[C@H](c1ccccc1)c1nnc(NCc2ccccc2-n2ccnc2)o1 | 4 | -0.72
69 | Cc1nc(NCCNC(=O)[C@@H]2CCC(=O)N2)cc(Nc2ccccn2)n1 | -11 | 1.98
70 | COc1cc(Br)ccc1CNCC1(OC)CCOCC1 | -9 | 1.92
71 | CCc1ccc(NC(=O)C2CC3(C2)CS(=O)(=O)C3)cc1C | -16 | 2.81
72 | CCN1CCN([C@H]2CCN(c3nccc4cc(OC)c(OC)cc34)C2)CC1 | 12 | -2.08
73 | CN1CCC(CNc2nccc3cccnc23)CC1 | 2 | -0.48
74 | CN(CC1(CO)CCOCC1)c1nc(-c2cccnc2)nc2c1cnn2C | 0 | 0
75 | COc1cccc([C@@H](CNc2ncnc3c2cnn3C)c2c[nH]c3ccccc23)c1OC | 7 | -1.03
76 | OC1CN(C2CCCC2)CC1N1CCN(c2nsc3ccccc23)CC1 (stereo not drawn) | -1 | 0.18
77 | C[C@H](O)CN1CCC(CN(C)CCCN2CCOCC2)CC1 | -10 | 1.8
78 | COC1COCCC1Nc1cc(-c2nc(C)no2)ccn1 (stereo not drawn) | 5 | -0.98
79 | Cc1nc(N2C(=O)N[C@](C)(c3ccccc3)C2=O)sc1C | -1 | 0.26
80 | Nc1nc(N2CCN(Cc3c[nH]cn3)C[C@H](O)C2)c2c[nH]nc2n1 | -5 | 0.95
81 | Cn1c(-c2ccccc2)c(-c2csc(Nc3ccccc3C(F)(F)F)n2)c2ccccc21 | -7 | 1.2
82 | CCOc1ccccc1C(=O)N1CC(O)C(Cc2cc(C)[nH]n2)C1 (stereo not drawn) | -4 | 0.67
83 | CC1NCCOC1c1ccc(-c2cnn3ncccc23)cc1 (stereo not drawn) | -6 | 1.01
84 | CN1CCN(c2cc(-c3ccc4c(c3)OC(F)(F)O4)nc(N)n2)CC1 | 9 | -1.95
